The supplement of paper PMC4604168 (melanoma cell lines)
The list shows a part of the results. Repeats are few or missing, and single values can be far off.

Columns and labels:
Assay in all cases: cell count relative to DMSO control; melanoma cells; higher = more viable cells
Conditions in all cases: library dose: standard library concentration; 72 h
[1] = test system: G361
[2] = test system: IPC-298
[3] = test system: IST-MEL1
[4] = test system: LB2518-MEL
[5] = test system: LOXIMVI
[6] = test system: MEL-HO
[7] = test system: MZ2-MEL
[8] = test system: MeWo
[9] = test system: RPMI7951
[10] = test system: RVH-421
[11] = test system: SkMel28
[12] = test system: SkMel2
[13] = test system: SkMel30
[14] = test system: SkMel5
[15] = test system: UACC257
[16] = test system: UACC62
[17] = test system: WM115
[18] = test system: WM1716
[19] = test system: WM1745
[20] = test system: WM3526
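Also: cells treated in 1,536-well plates, then fixed and DAPI-stained, with nuclei counted from automated high-throughput microscope images.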

| Structure (SMILES) | cell count [1] | cell count [2] | cell count [3] | cell count [4] | cell count [5] | cell count [6] | cell count [7] | cell count [8] | cell count [9] | cell count [10] | cell count [11] | cell count [12] | cell count [13] | cell count [14] | cell count [15] | cell count [16] | cell count [17] | cell count [18] | cell count [19] | cell count [20] |
| --- | --- | --- | --- | --- | --- | --- | --- | --- | --- | --- | --- | --- | --- | --- | --- | --- | --- | --- | --- | --- |
| Cc1cc(SCc2sc(-c3ccc(C(F)(F)F)c(F)c3)nc2C)ccc1OCC(=O)O + Oc1nc(-c2ccc(C(F)(F)F)cc2)nc2c1CSCC2 [XAV939] (first compound 10 µM, partner dose 10 µM) | 76.1% | 87.6% | 83.2% | 78% | 79.2% | 81.5% | 95.1% | 76.8% | 87% | 81.1% | 70.6% | 93.2% | 98.2% | 89.9% | 73.4% | 84.2% | 74.9% | 91.3% | 62.8% | 94.8% |
| CCCCCCCCc1ccc(CCC(N)(CO)CO)cc1 [fingolimod] + Cc1cc(SCc2sc(-c3ccc(C(F)(F)F)c(F)c3)nc2C)ccc1OCC(=O)O [GW0742] (first compound 10 µM, partner dose 10 µM) | 1.23% | 50.5% | 8.78% | 0.166% | 40.7% | 28.7% | 2.7% | 5.03% | 5.49% | 34.4% | 0.384% | 0.401% | 12.7% | 32.6% | 53.8% | 7% | 10.3% | 19.4% | – | 24.1% |
| CCCS(=O)(=O)Nc1ccc(F)c(C(=O)c2c[nH]c3ncc(Cl)cc23)c1F + Cc1cc(SCc2sc(-c3ccc(C(F)(F)F)c(F)c3)nc2C)ccc1OCC(=O)O [GW0742] (first compound 0.4 µM, partner dose 10 µM) | 69.7% | 75.3% | 84% | 97.1% | 112% | 81.8% | 64.1% | 93% | 101% | 68.7% | 52.9% | 83.2% | 92.1% | 77.9% | 90% | 55.9% | 60.3% | 79.4% | – | 51.4% |
| Cc1cn(-c2cc(NC(=O)c3ccc(C)c(Nc4nccc(-c5cccnc5)n4)c3)cc(C(F)(F)F)c2)cn1 [nilotinib] + O=C(Oc1ccc([N+](=O)[O-])cc1)N1CCC(C(O)(c2ccc3c(c2)OCO3)c2ccc3c(c2)OCO3)CC1 [JZL184] (first compound 1 µM, partner dose 5 µM) | 81.9% | 85.4% | 95.3% | 107% | 96.5% | 88.6% | 82.3% | 73.7% | 99.5% | 90.7% | 94.9% | 92.2% | 86.8% | 64.1% | 103% | 77.4% | 101% | 88.9% | – | 71.6% |
| COc1ccc(C2=N[C@@H](c3ccc(Cl)cc3)[C@@H](c3ccc(Cl)cc3)N2C(=O)N2CCNC(=O)C2)c(OC(C)C)c1 [Nutlin-3] + O=C(Oc1ccc([N+](=O)[O-])cc1)N1CCC(C(O)(c2ccc3c(c2)OCO3)c2ccc3c(c2)OCO3)CC1 [JZL184] (first compound 0.5 µM, partner dose 5 µM) | 75.8% | 96.4% | 99.7% | 109% | 84.1% | 97.3% | 102% | 86.4% | 110% | 70.5% | 84.3% | 78.5% | 88.7% | 73.7% | 79.2% | 44.6% | 79.7% | 83.6% | – | 82% |
| CCCS(=O)(=O)Nc1ccc(F)c(C(=O)c2c[nH]c3ncc(Cl)cc23)c1F + O=C(Oc1ccc([N+](=O)[O-])cc1)N1CCC(C(O)(c2ccc3c(c2)OCO3)c2ccc3c(c2)OCO3)CC1 [JZL184] (first compound 0.4 µM, partner dose 5 µM) | 56.1% | 65.6% | 91.4% | 124% | 109% | 69.7% | 65% | 82.1% | 84.3% | 31% | 39.8% | 76.8% | 95.4% | 68.4% | 91.4% | 43.9% | 67.3% | 67.8% | – | 40.1% |
| CNC(=O)c1cc(Oc2ccc(NC(=O)Nc3ccc(Cl)c(C(F)(F)F)c3)cc2)ccn1 [sorafenib] + O=C(Oc1ccc([N+](=O)[O-])cc1)N1CCC(C(O)(c2ccc3c(c2)OCO3)c2ccc3c(c2)OCO3)CC1 [JZL184] (first compound 2 µM, partner dose 5 µM) | 107% | 90.1% | 110% | 92.7% | 98.5% | 89.4% | 104% | 101% | 85.6% | 100% | 92.7% | 84% | 98.5% | 80.4% | 74.9% | 79.5% | 74.2% | 106% | – | 76.6% |
| CNC(=O)c1cc(Oc2ccc(NC(=O)Nc3ccc(Cl)c(C(F)(F)F)c3)cc2)ccn1 [sorafenib] + Cc1cc(SCc2sc(-c3ccc(C(F)(F)F)c(F)c3)nc2C)ccc1OCC(=O)O [GW0742] (first compound 2 µM, partner dose 10 µM) | 68.8% | 83.3% | 84.6% | 79.4% | 109% | 78.9% | 91.7% | 91.1% | 62% | 97.6% | 92.5% | 95.3% | 103% | 94% | 66.5% | 91.5% | 113% | 73.4% | – | 82.5% |
| Cn1sc(=O)n(Cc2ccccc2)c1=O + Cc1cc(SCc2sc(-c3ccc(C(F)(F)F)c(F)c3)nc2C)ccc1OCC(=O)O [GW0742] (first compound 2 µM, partner dose 10 µM) | 87.6% | 99.8% | 90.9% | 90.7% | 80.3% | 97.2% | 83.1% | 89.1% | 85.4% | 85.5% | 81.7% | 91.3% | 111% | 106% | 93.2% | 87.3% | 98.8% | 101% | – | 94.8% |
| OCc1c[nH]c2ccccc12 [Indole-3-carbinol] + Cc1cc(SCc2sc(-c3ccc(C(F)(F)F)c(F)c3)nc2C)ccc1OCC(=O)O [GW0742] (first compound 4 µM, partner dose 10 µM) | 110% | 108% | 99.9% | 98.5% | 93% | 92.3% | 109% | 112% | 105% | 93.8% | 96.6% | 117% | 149% | 123% | 109% | 106% | 94.4% | 104% | – | 112% |
